For 29 compounds, activity change, negative = inhibition results are on record in PubChem BioAssay AID1745853 (National Center for Advancing Translational Sciences (NCATS), 2022).

Molecules are shown by their SMILES. The list shows a part of the results. Further columns of the screen follow, without active or inactive calls.

What all share (assay): Primary Screen for Target Class Profiling of Small Molecule Inhibitors of Methyltransferases
The target in test [1] is Glycine N-methyltransferase (Homo sapiens) (UniProt Q14749). Conditions: purified enzyme, MTase-Glo SAH luminescence; measured here: GNMT inhibition; at 40 µM; stronger effect = lower value. The procedure, abridged: (§1)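 Each enzyme was assayed with SAM and its substrate. SAH formation detected by MTase-Glo luminescence; single-point 40 uM screen[…].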
In test [2] the target is Guanidinoacetate N-methyltransferase (Homo sapiens) (UniProt Q14353). Conditions: purified enzyme, MTase-Glo SAH luminescence; measured here: GAMT inhibition; at 40 µM; stronger effect = lower value. The procedure, abridged:
as §1

Test [3] addresses Histamine N-methyltransferase (Homo sapiens) (UniProt P50135). Conditions: purified enzyme, MTase-Glo SAH luminescence; measured here: HNMT inhibition; at 40 µM; stronger effect = lower value. The method in brief:
as §1

In test [4] the target is Nicotinamide N-methyltransferase (Homo sapiens) (UniProt P40261). Conditions: purified enzyme, MTase-Glo SAH luminescence; measured here: NNMT inhibition; at 40 µM; stronger effect = lower value. The method in brief:
as §1

For test [5], the target named is Phenylethanolamine N-methyltransferase (Homo sapiens) (UniProt P11086). The settings on record: purified enzyme, MTase-Glo SAH luminescence; measured here: PNMT inhibition; at 40 µM; stronger effect = lower value. The method in brief: as §1
% is set by controls: 0 for no effect and ±100 for the full control effect.

Turning to `O=C([C@@H]1COCC(=O)N1Cc1ccccc1)N1CCN(Cc2ccc3c(c2)OCO3)CC1`, the activity change, negative = inhibition is -0.157% in test [1]; 0.241% in test [2]; 2.54% in test [3]; -5.16% in test [4]; 17.8% in test [5].
The matching figures for `Cc1ccc(Cn2c(=O)c3ccccc3n3c(CCC(=O)NCCCN4CCCC4=O)nnc23)cc1`: -1.18%, 0%, 3.29%, 3.8% and 1.82%.
The matching figures for `CC(C)OCCCNC(=O)C1c2c(n(C)c3ccccc23)SCC(=O)N1c1ccc(C(C)C)cc1` (stereo not given): 0.195%, 0%, -2.45%, -1.59% and 2.26%.
The matching figures for `C/C=C/C=C/C(O)=C1\C(O)=C(C)C(=O)[C@@]2(C)OC(=O)[C@@](C)(NC(=O)/C=C/C(=O)O)[C@@H]12`: 0%, -4.32%, 8.71%, -16.7% and -8.9%.
Take `COc1ccc(-c2nc(-c3ccc(-c4cccc(Cl)c4)o3)[nH]c2-c2ccc(OC)cc2)cc1`: the activity change, negative = inhibition in test [1] was 2.05%; in test [2], -19.2%; in test [3], -1.46%; in test [4], -47.7%; in test [5], -18.7%.
The matching figures for `Cc1nnc(-c2ccc(-c3ccc(C(=O)Nc4ccc(O)c(N5CCN(C)CC5)c4)cc3)c(C)c2)o1`: -6.48%, 3.68%, -16.5%, -25.9% and 2.29%.
For `CCCn1c(=O)c2ccc(C(=O)NC(C)C)cc2n2c(=O)n(CC(=O)c3ccc(C)cc3C)nc12` the same measures were -0.201%, 3.51%, 6.27%, -3.78% and 0.737%.
As for `CCOc1ccccc1CNC(=O)c1cc2n(n1)CC(C)(C(=O)NCc1ccc(C)cc1)N(C)C2=O` (stereo not given), the activity change, negative = inhibition in test [1] came to 2.67%; in test [2] it was 0%; in test [3], 1.39%; in test [4], 5.03%; in test [5], 0.487%.
For `C=Cc1ccc(Cn2nc3n(CCC)c(=O)c4ccc(C(=O)NCC(C)C)cc4n3c2=O)cc1` the same measures were 5.11%, 0.478%, 9.76%, 1.29% and 5.87%.
Take `CC(C)CNC(=O)c1ccc2c(=O)n(C(C)C)c3nn(Cc4ccccc4Cl)c(=O)n3c2c1`: the activity change, negative = inhibition in test [1] amounted to 2.87%; in test [2] it was 0%; in test [3], 6.36%; in test [4], 4.9%; in test [5], 4.88%.
The matching figures for `CCOC(=O)c1cc2n(n1)CC(C)(C(=O)NC1CCCCC1)N(c1ccc(OCC)cc1)C2=O` (stereo not given): 3.95%, 0%, -0.748%, 3.23% and 5.2%.
For `CC1(C(=O)NC2CCCCCC2)Cn2c(ccc2-c2ccco2)C(=O)N1Cc1ccccc1Cl` (stereo not given) the same measures were -9.29%, 3.05%, -1.94%, -20% and -4.13%.
For `O=C(COc1ccc(F)cc1)N1CCCCC1c1nc(-c2cnccn2)n[nH]1` (stereo not given) the same measures were -2.38%, 4.51%, 2.97%, -4.49% and 8.54%.
For the compound `CN(C)CC1CCn2c(c(C3=C(c4cn(C)c5ccccc45)C(=O)NC3=O)c3ccccc32)C1` (stereo not given), the activity change, negative = inhibition in test [1] was -10.3%; in test [2] it was 2.83%; in test [3], -43.1%; in test [4] it was -51%; in test [5] it was -6.31%.
For `COc1cc(O[C@@H]2O[C@H](CO)[C@@H](O)[C@H](O)[C@H]2O)c(CCC(=O)OC[C@H]2O[C@@H](Oc3cc(OC)c(C4OC(=O)C(C)(O)C4O)cc3CCC(=O)O)[C@H](O)[C@@H](O)[C@@H]2O)cc1C1OC(=O)C(C)(O)C1O` (stereo not given in full) the same measures were 0%, -8.08%, 0.117%, -18.7% and 0.829%.
For the compound `CC(NC(=O)CCc1nnc2n(Cc3ccc(Cl)cc3)c(=O)c3ccccc3n12)c1ccccc1` (stereo not given), the activity change, negative = inhibition was -3.5% in test [1]; -4.98% in test [2]; 3.12% in test [3]; -9.2% in test [4]; -5.5% in test [5].
For `CCC(C)NC(=O)c1ccc2c(=O)n(C)c3nnc(SCC(=O)Nc4cc(C)cc(C)c4)n3c2c1` (stereo not given) the same measures were 1.51%, 0.24%, -3.27%, 0.372% and -1.35%.
For `Cc1cc(C)cc(N2C(=O)c3cc(C(C)(C)C)nn3CC2(C)C(=O)NC2CCCCC2)c1` (stereo not given) the same measures were -6.49%, -2.06%, -3.78%, -6.07% and -2.64%.
For `CCOC(=O)c1cc2n(n1)CC(C)(C(=O)NCCC(C)C)N(Cc1ccc(Cl)cc1)C2=O` (stereo not given) the same measures were 0.756%, 5.21%, -0.146%, 1.96% and -2.64%.
With `COCCCN1C(=O)c2cc3occc3n2CC1(C)C(=O)NC1CCCCC1C` (stereo not given), the activity change, negative = inhibition came to 4.27% in test [1]; 2.19% in test [2]; 6.48% in test [3]; 4.76% in test [4]; 1.33% in test [5].
As for `O=C(CCc1nnc2n(CCc3ccccc3)c(=O)c3ccccc3n12)NCCc1c[nH]c2ccccc12`, the activity change, negative = inhibition in test [1] is 3.34%; in test [2] it was 3.78%; in test [3], -5.11%; in test [4], -2.18%; in test [5], 0.603%.
The matching figures for `Cc1ccc(Cn2c(=O)c3ccc(C(=O)NCC(C)C)cc3n3c(=O)n(Cc4ccc(F)cc4)nc23)cc1`: 11.6%, 0.323%, 9.77%, 12.3% and 10.3%.
Take `Cc1ccccc1CN1C(=O)c2ccc(-c3ccco3)n2CC1(C)C(=O)NC1CCCCCCC1` (stereo not given): the activity change, negative = inhibition in test [1] was -3.68%; in test [2], 0%; in test [3], 1.14%; in test [4], -8.41%; in test [5] it was -3.75%.
`COCc1cccc(-c2n[nH]c3c2CC(=O)N(c2ccccc2)C3)c1`: the activity change, negative = inhibition is -6.6% in test [1]; -4.93% in test [2]; -4.72% in test [3]; -7.47% in test [4]; -7.77% in test [5].
For `COc1ccc(NC(=O)N2CCn3cccc3C2Cc2ccccc2)c(OC)c1` (stereo not given) the same measures were 10.7%, 4.28%, -8.06%, 1.65% and -0.009%.
For `CC(C)Cn1c(=O)c2ccccc2n2c(CCC(=O)NC3CC3)nnc12` the same measures were -1.07%, 1.03%, 3.13%, 10% and -0.527%.
Regarding `COCCOc1ccc2c(n1)CCN(C(=O)c1ccc(OC)c(OC)c1)C2`, the activity change, negative = inhibition in test [1] was -3.78%; in test [2], 0.267%; in test [3] it was -0.82%; in test [4], -0.368%; in test [5], 2.29%.
The matching figures for `CC(C)OCCCN1C(=O)c2ccc(-c3ccco3)n2CC1(C)C(=O)NC1CCCC1` (stereo not given): -2.63%, 1.65%, 5.31%, 2.79% and -0.727%.
For the compound `O=C(CCCc1nnc2n3nc(-c4ccccc4)nc3c3ccccc3n12)NC1CCCCC1`, the activity change, negative = inhibition in test [1] is -3.2%; in test [2], 1.55%; in test [3], 2.39%; in test [4] it was 5.98%; in test [5], -2.53%.
